# Source: PMC4336329 (PLoS ONE, 2015)
# Screen size: about 310,000 compounds; about 14,000 (4.5%) showed an effect of 50% or more. Effects have a minus sign here. The list shows a part of the results.
# Target: human ether-à-go-go-related gene (hERG) potassium channel (human, UniProt Q12809)
# Assay: primary screen, population patch clamp on CHO cells stably expressing hERG
# Experimental: Briefly, Chinese hamster ovary (CHO) cells stably expressing the hERG channel were dislodged from tissue culture flasks and dispensed into PPC plates. […] During the recording, background leak currents were estimated by a 100 ms step to -80 mV from an initial holding potential of -70 mV and subtracted from the subsequent current measurement. The campaign was conducted in two phases using slight differences in recording protocol. In the first phase, the initial voltage pulse used a 100 ms step to -30 mV from a holding potential of -70 mV, a 2 s conditioning step to +25 mV, and a 2 s test step to -30 mV. During the second phase of the screen, the potential during the conditioning step was raised to +45 mV. In both phases of the campaign, a secondary voltage pulse was applied using the same parameters as the second phase initial pulse. The initial and secondary pulses were applied in the absence of compound, and upon application of 1 μM and 10 μM test concentrations. […]
# 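Further: peak tail current of the secondary pulse compared with the same well before compound.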
# Sequence of human ether-à-go-go-related gene (hERG) potassium channel (Q12809 whole entry, looked up): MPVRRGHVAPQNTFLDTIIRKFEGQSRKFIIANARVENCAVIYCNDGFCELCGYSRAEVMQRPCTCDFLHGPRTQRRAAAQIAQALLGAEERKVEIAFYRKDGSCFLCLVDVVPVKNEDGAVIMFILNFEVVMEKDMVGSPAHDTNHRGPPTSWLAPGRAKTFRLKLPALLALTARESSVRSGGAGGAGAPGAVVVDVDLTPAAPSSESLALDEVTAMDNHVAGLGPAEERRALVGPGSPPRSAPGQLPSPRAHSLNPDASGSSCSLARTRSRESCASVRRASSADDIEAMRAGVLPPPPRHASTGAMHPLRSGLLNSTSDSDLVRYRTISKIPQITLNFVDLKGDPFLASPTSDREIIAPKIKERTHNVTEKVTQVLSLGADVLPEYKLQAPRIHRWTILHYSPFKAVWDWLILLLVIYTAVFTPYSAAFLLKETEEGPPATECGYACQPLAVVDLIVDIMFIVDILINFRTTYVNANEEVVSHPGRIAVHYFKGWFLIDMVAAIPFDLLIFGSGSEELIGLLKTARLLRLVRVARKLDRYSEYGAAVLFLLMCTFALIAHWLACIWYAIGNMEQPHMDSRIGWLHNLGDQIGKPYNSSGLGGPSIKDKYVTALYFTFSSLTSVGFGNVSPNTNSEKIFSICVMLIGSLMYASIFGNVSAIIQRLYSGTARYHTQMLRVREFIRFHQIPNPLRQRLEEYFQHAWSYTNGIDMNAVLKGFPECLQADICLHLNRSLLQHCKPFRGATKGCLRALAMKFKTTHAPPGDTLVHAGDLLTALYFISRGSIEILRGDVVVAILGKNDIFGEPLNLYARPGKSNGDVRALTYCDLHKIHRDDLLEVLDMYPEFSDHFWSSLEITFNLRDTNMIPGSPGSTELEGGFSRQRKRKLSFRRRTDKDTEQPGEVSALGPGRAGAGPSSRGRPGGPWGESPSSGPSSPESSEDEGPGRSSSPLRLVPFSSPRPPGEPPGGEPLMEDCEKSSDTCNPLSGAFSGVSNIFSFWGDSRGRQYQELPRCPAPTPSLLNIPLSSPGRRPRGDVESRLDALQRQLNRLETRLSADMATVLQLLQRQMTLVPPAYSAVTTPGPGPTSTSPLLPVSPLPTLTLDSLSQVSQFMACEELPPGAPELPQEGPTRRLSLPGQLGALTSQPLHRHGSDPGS
row,SMILES,"hERG current change (%, negative = inhibition) at 10uM"
1,Clc1ccc(-c2nnn(Cc3nc4ccccc4s3)n2)cc1,3.73%
2,COC(=O)c1cccc2c1-c1ccccc1/C2=N/O,-9.53%
3,COc1ccccc1N1CCN(C(=O)c2cc(=O)c3ccc(C)cc3o2)CC1,-20.7%
4,O=C(CC(=O)c1ccccc1)Nc1cc(C(F)(F)F)ccc1Cl,-13.1%
5,Cc1nnc(NC(=O)Cn2nc(C)c3ccccc3c2=O)s1,16.2%
6,COc1ccccc1NC(=O)Nc1ccc(C(N)=O)cc1,5.2%
7,O=C(Nc1ccc(CN2CCOCC2)cc1)c1cc2ccccc2o1,-50.2%
8,CC(C)Cc1ccc(C(C)C(N)=Nc2ccc(O)cc2)cc1.Cl (stereo not drawn),-80.2%
9,O=C1NC[C@H](c2ccccc2)N(CCc2cc(C(F)(F)F)cc(C(F)(F)F)c2)C1=O,-23.4%
10,COc1ccc2cc(C(=O)NCc3ccccc3)c(=Nc3ccc(C(=O)O)cc3)oc2c1,14.3%
11,CCCn1c(=NC(=O)c2ccco2)c(C(=O)OCC)cc2c(=O)n3ccccc3nc21,-66.7%
12,O=C1CC(N2CCC(c3nc4ccccc4o3)CC2)C(=O)N1c1ccc(Cl)c(C(F)(F)F)c1 (stereo not drawn),6.87%
13,O=C(Nc1cccc(C(F)(F)F)c1)c1cnccn1,-2.3%
14,O=C(CSc1nncn1-c1cccnc1)Nc1cccc([N+](=O)[O-])c1,4.83%
15,Cc1nc2ccc(N3CCN(C)CC3)cc2nc1C,15.1%
16,CC(=O)Nc1ccc(S(=O)(=O)N(C)CC(=O)OC(C)C(=O)N(C)Cc2ccccc2)cc1 (stereo not drawn),14.6%
17,O=C(NCCN1C(=O)S/C(=C\c2ccc(OC(F)F)cc2)C1=O)C1=COCCO1,-32.5%
18,COc1c(Br)cc2c(C)c(C(=O)O)oc2c1Br,27.7%
19,CCCCC(=O)NC(c1ccc(N(C)C)cc1)c1ccc2cccnc2c1O (stereo not drawn),2.27%
20,O=C(NCCC1=CCCCC1)C1CCN(S(=O)(=O)c2ccccc2)CC1,-2.85%
21,Cn1c2c(c(=O)n(C)c1=O)C(c1cccc([N+](=O)[O-])c1)Nc1ccccc1O2 (stereo not drawn),-12.3%
22,CCCCS(=O)(=O)N1CCCC(C(=O)Nc2ccc(Cl)cn2)C1 (stereo not drawn),-16.4%
23,COc1ccc(NS(=O)(=O)c2ccc(-c3coc(C)n3)cc2)cc1,22.8%

row,SMILES,"hERG current change (%, negative = inhibition) at 10uM"
1,CC1=C(C(=O)Nc2ccccc2)C(c2cccs2)n2nnnc2N1 (stereo not drawn),4.46%
2,O=S(=O)(NCc1ccccc1)c1ccc(NC(=S)NCc2ccco2)cc1,-5.02%
3,Cc1cccc(C(=O)Nc2ccc(NC(=O)CN3CCOCC3)cc2)c1,4.46%
4,Cc1nn(-c2ccccc2)c(C)c1/C=N/NC(=O)c1cc(-c2ccccc2)n[nH]1,-5.75%
5,CCCn1c(SCC(=O)Nc2nnc(CC)s2)nnc1-c1ccncc1,13.7%
6,COc1ccc(OC)c(C(C)NC(C)=O)c1 (stereo not drawn),13.3%
7,Nc1ccccc1C(=O)NCc1ccco1,9.62%
8,COc1cccc(NC(=O)Nc2nc(SC)ns2)c1,17.3%
9,COc1cccc(/C(O)=C2\C(=O)C(=O)N(c3ccccn3)C2c2cccc(OC)c2OC)c1 (stereo not drawn),1.08%
10,CCn1c2ccccc2c2cc(NC(=O)c3cccc([N+](=O)[O-])c3)ccc21,8.93%
11,COCCN1Cc2cccc(C(=O)Nc3c(C)cc(C)cc3C)c2C1=O,-13.3%
12,Cc1ccc(O)c(NC(=O)CSc2ccc(Cl)cc2)c1,19.3%
13,COc1ccc(S(=O)(=O)N2CCCCC2)cc1NC(=O)C1CCCC1,-8.28%
14,CCC1COCCS(=O)(=O)N1Cc1cccc(Cl)c1 (stereo not drawn),-19.3%
15,CCc1c(C)nc2ncnn2c1N1CCCC(C(=O)NCCc2ccccc2)C1 (stereo not drawn),-15.2%
16,CCNc1nc(NCC)n2c(SCC(=O)Nc3ccccc3)nnc2n1,1.89%
17,COCCNc1nc2nonc2nc1N1CCC(N(C)C)C1 (stereo not drawn),1.92%
18,COc1ccccc1CNC(=O)c1cccc(S(=O)(=O)N2CCN(c3ccc(F)cc3)CC2)c1,-4.01%
19,C/C(=N\NC(=O)c1ccc(NS(=O)(=O)c2cccs2)cc1)c1ccc(O)cc1O,-0.956%
20,Cc1nn(Cc2ccc(Cl)c(Cl)c2)c(C)c1NC(=O)c1sc2ccccc2c1Cl,3.36%
21,COc1ccc(-c2nc(NC(=O)CSCCO)sc2C)cc1,-4.57%
22,CC1CC(C)(C)N(C(=O)NC2CCCCC2)c2ccccc21 (stereo not drawn),15%
